Reference: PubChem BioAssay AID1346428 (National Center for Advancing Translational Sciences (NCATS), 2018)
About 1,200 (2.5%) of roughly 48,000 compounds were called active. Roughly 2% stayed inconclusive and do not appear here.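 The calls were made as follows: active = activation of at least 60% and not above a set upper limit (about 1 call in 100 departs from these limits); inconclusive = activation of 40% to 60%, or above that upper limit; inactive = activation under 40%.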 The list shows a part of the results. *1 amine or outer side, *2 acyl side, *3 side chain or, on linkers, in order; H or OH if unused. Where a SMILES comes first, the peptide text is derived from it. Bridges are numbered along the chain shown (N, C = ends). Roman numbers before positions name the chains, in order. [ ]: non-standard residue; d: D form. Actinocin(9to1) = Cc1c2oc3c(C)ccc(C(=O)[*:1])c3nc-2c(C(=O)[*:2])c(N)c1=O; NMeV = CN[C@H](C(=O)O)C(C)C; Sar = CNCC(=O)O
Also: 0% is about no effect.

What follows are compounds tested against Probable G-protein coupled receptor 32 (Homo sapiens) (UniProt O75388) (assay: qHTS for Agonists of Human Resolvin D1 Receptor DRV1). Conditions: CHO-K1 GPR32 beta-arrestin PathHunter luminescence, 90 min; at 76.9 µM; active compounds read high; zero percent set by DMSO-only wells.
UniProt O75388, sequence (O75388 whole entry, looked up): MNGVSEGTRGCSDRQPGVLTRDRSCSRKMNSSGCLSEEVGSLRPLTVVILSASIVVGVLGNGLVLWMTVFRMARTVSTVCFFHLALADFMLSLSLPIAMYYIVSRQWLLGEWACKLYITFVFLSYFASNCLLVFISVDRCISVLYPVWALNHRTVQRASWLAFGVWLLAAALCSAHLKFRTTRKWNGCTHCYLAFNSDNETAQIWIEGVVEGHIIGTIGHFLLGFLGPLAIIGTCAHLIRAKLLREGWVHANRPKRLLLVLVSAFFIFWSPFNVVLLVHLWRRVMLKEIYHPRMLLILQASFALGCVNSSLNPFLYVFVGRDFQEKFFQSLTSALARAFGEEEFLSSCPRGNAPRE
How it was run: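 Luminescent readout of beta-Gal complementation quantifies ligand-induced beta-arrestin association with GPR32 in CHO-K1 cells; 90 min compound incubation at 37 °C, detection 1 h at room temperature.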
For `CCc1ccc(OCC(=O)Nc2ncn[nH]2)c(Br)c1`, the activation was inactive: 2.01%. For `COc1ccccc1CNC(=O)CCNS(=O)(=O)c1ccc2c(c1)oc(=O)n2C`, the activation was inactive: -7.93%. With `Cc1cccc(NC(=O)c2sc3nc(-c4cc5ccc(O)cc5oc4=O)[nH]c(=O)c3c2C)c1` the activation was inactive: 1.94%. In the case of `O=C(COc1ccc(F)cc1)NCc1ccc2c(c1)CCN2C(=O)c1ccccc1`, the activation was inactive: -22.6%. In the case of `CNC(=O)c1ccc2c(c1)N(Cc1ccccc1Cl)C(=O)c1ccccc1S2`, the activation was inactive: -15.3%. For `Clc1ccc(-c2noc(-c3cccnc3NCc3ccco3)n2)cc1`, the activation was inactive: 0.243%. In the case of `Cc1ccc(-n2nc(C)c3nc(CCC(=O)Nc4cccc(F)c4)c(=O)n(C)c32)cc1`, the activation was inactive: 4.98%. With `Cc1cccc(CNC(=O)CCCN2C(=O)CCn3nc(-c4cccn4C)cc32)c1` the activation was inactive: -6.88%. For `COc1ccc(N2CCN(Cc3nnc(-c4ccc5c(c4)OCO5)o3)CC2)cc1`, the activation was inactive: -17.6%. For `CCc1cccc(C)c1Nc1c(-c2ccsc2)nc2ncccn12`, the activation was inactive: -23.4%. For `Cc1ccc2c(c1)c1c3n2CCN(C(=O)c2cccc(C(F)(F)F)c2)C3CCC1` (stereo not given), the activation was inactive: -26.6%. `Cc1ccc(C)c(Cn2c3ccccc3c3cnn(CC(=O)NCCc4ccccc4)c(=O)c32)c1` was tested, and the activation was inactive: -3.7%. `CCOc1c(Cl)cc(C(=O)N(Cc2ccc(N(C)C)cc2)Cc2ccco2)cc1Cl` was tested, and the activation was inactive: -33.2%. In the case of `COc1ccc(CNC(=O)C2CCCN(c3nnc(C)c4c(C)n(-c5ccc(C)cc5)nc34)C2)cc1` (stereo not given), the activation was inactive: -0.642%. With `COc1ccc2c(c1)c(CC(=O)OCC(=O)O)c(C)n2C(=O)c1ccc(Cl)cc1` the activation was inactive: -17.6%. In the case of `CCC(Sc1nc2ncccc2o1)C(=O)Nc1ccc(OC)c(OC)c1` (stereo not given), the activation was inactive: -11.3%. `CCC1CN(C(=O)N2CCC(C(=O)N3CCN(c4ccccc4F)CC3)CC2)c2ccccc2O1` (stereo not given) was tested, and the activation was inactive: -15.5%. `CCOc1ccccc1N(C)C(=O)c1c2c(nc3ccccc13)C(=O)N(C1CCCCC1)C2` was tested, and the activation was inactive: -7.72%. For `O=S(=O)(c1ccc(Cl)cc1Cl)n1ccnc1`, the activation was inactive: 12.3%. In the case of `CSc1oc(-c2cccs2)nc1S(=O)(=O)c1ccc(Br)cc1`, the activation was inactive: -26.3%. In the case of `COc1ccc(C2CC(=O)c3cc(-c4nc(-c5cccc(Cl)c5)cs4)c(=O)[nH]c3C2)cc1` (stereo not given), the activation was inactive: 18.7%. With `Cc1ccc2c(=O)cc(C(=O)Nc3sc4c(c3C(=O)NCC3CCCO3)CCCC4)oc2c1` (stereo not given) the activation was inactive: 4.27%. In the case of `CCCNC(=O)CN1CCN(c2ccc(NC(=O)c3ccc(OC)cc3)cc2C(=O)O)CC1`, the activation was inactive: -4.56%. `COc1ccc(CNC(=O)c2ccc(NC(=O)N3CCSc4ncccc43)cc2)cc1` was tested, and the activation was inactive: 1.39%. For `Cc1ccccc1C(=O)N1CCC(C(=O)Nc2ccc(F)cc2F)CC1`, the activation was inactive: 38.8%. `Cc1nc(N2CCOCC2)c2c(C(=O)N3CCN(c4ccccc4)CC3)c(C)oc2n1` was tested, and the activation was inactive: -8.25%. For `Cc1ccc(S(=O)(=O)c2nc(-c3ccccc3F)oc2NCc2ccccc2)cc1`, the activation was inactive: -4.67%. `Cc1c2oc3c(C)ccc(C(=O)N[C@@H]4C(=O)N[C@H](C(C)C)C(=O)N5CCC[C@H]5C(=O)N(C)CC(=O)N(C)[C@@H](C(C)C)C(=O)O[C@@H]4C)c3nc-2c(C(=O)N[C@@H]2C(=O)N[C@H](C(C)C)C(=O)N3CCC[C@H]3C(=O)N(C)CC(=O)N(C)[C@@H](C(C)C)C(=O)O[C@@H]2C)c(N)c1=O` (I: T[dV]P[Sar][NMeV] / II: T[dV]P[Sar][NMeV]; ester I:1-I:C, II:1-II:C; linker I:N-II:N via Actinocin(9to1)) was tested, and the activation was inactive: -4.42%. For `Cc1cc2c(cc3c(SCC(=O)Nc4ccc(Cl)cc4F)nncn32)o1`, the activation was inactive: -6.89%. For `CCOC(=O)c1cccc(NC(=O)NC(C)c2c(-n3cccc3)sc3c2CCN(C)C3)c1` (stereo not given), the activation was inactive: -22.3%. With `O=C(COc1ccccc1F)Nc1ccc(OCc2cc(=O)n3ccccc3n2)cc1` the activation was inactive: -10.8%. `COc1ccc(CC(=O)N2CCc3cc(OC)c(OC)cc3C2COc2ccc3c(C)cc(=O)oc3c2)cc1OC` (stereo not given) was tested, and the activation was inactive: -2.99%. `COCCCN1C(=O)c2oc3ccccc3c(=O)c2C12C(=O)N(C)c1ccccc12` (stereo not given) was tested, and the activation was inactive: -19.9%. For `CCOc1ccc(NC(=O)CCc2c(C)nc3c(-c4ccccc4)c(C)nn3c2C)cc1`, the activation was inactive: -0.457%. In the case of `Cc1ccc(CNC(=O)CSC2=Nc3ccccc3N=C(c3ccc(F)cc3)C2)cc1`, the activation was inactive: -9.18%. With `O=c1ccc2cc(S(=O)(=O)Nc3ccc(OC(F)(F)F)cc3)ccc2[nH]1` the activation was inactive: -6.28%. With `COC(=O)c1ccc(Cn2c(SCc3ccc(F)cc3)nc3ccncc32)cc1` the activation was inactive: -1.21%. For `O=C(O)c1ccc(Cn2c(SCc3ccc(F)cc3)nc3ccncc32)cc1`, the activation was inactive: -3.07%. `Cc1ccc2nc(NC(=O)CSc3nccn3Cc3ccc(F)cc3)sc2c1` was tested, and the activation was inactive: 22.8%. With `COCCNc1ccc2cc(S(=O)(=O)N3CCCCC3)ccc2n1` the activation was inactive: 4.91%. For `COCCNC(=O)CCCn1c(SCC(=O)NCc2ccc(C)cc2)nc2c(sc3ccccc32)c1=O`, the activation was inactive: -8.83%. In the case of `CCC(C)NC(=O)c1sc2nc(C)c(C(=O)Nc3ccc(C)cc3C)c(-c3ccc(NC(C)=O)cc3)c2c1N` (stereo not given), the activation was inactive: -21.8%. `COc1ccc(Cn2c(C(=O)O)c(CNCc3ccc(SC)cc3)c3ccc(OC)cc32)cc1` was tested, and the activation was inactive: -6.08%. In the case of `CC(C)NC(=O)CN1C(=O)CCn2nc(-c3cn(C)c4ccccc34)cc21`, the activation was inactive: -8.27%. In the case of `Cc1ccccc1Cn1c(=O)n(-c2ccc(Cl)cc2)c(=O)c2c3c(sc21)CCCC3`, the activation was inactive: 5.89%. `CCc1ccc(NS(=O)(=O)c2[nH]ncc2C(=O)OC)cc1` was tested, and the activation was inactive: -30.7%. `Cc1cc(F)ccc1NC(=O)C1CCC(CNS(=O)(=O)c2ccc3c(c2)CCCC(=O)N3)CC1` (stereo not given) was tested, and the activation was inactive: -26.4%. With `CCCS(=O)(=O)N1CCC(C(=O)NCCOC)CC1` the activation was inactive: 0.438%. In the case of `Cc1ccccc1NC(=O)c1sc2nc3c(cc2c1N)CN(Cc1ccccc1)CC3`, the activation was inactive: 15.3%. For `COc1ccc(OC)c(S(=O)(=O)NCC(c2cccs2)S(=O)(=O)c2ccc(F)cc2)c1` (stereo not given), the activation was inactive: -4.08%. `COc1cccc(N2CCN(C(=O)CN3CCSc4ccccc43)CC2)c1` was tested, and the activation was inactive: 43.8%. `COc1ccccc1CNc1ncnc2c1cnn2-c1ccc(C)cc1` was tested, and the activation was inactive: 30%. With `Cc1ccc(-n2nc(C)c3c(C)cc(=O)n(CC(=O)Nc4cccc(C)c4C)c32)cc1` the activation was inactive: -3.66%. In the case of `O=C(Nc1cc2c(cc1C(=O)c1ccccc1Br)OCCO2)c1cccc(Cl)c1`, the activation was inactive: 29.6%. In the case of `O=C(c1cc2c(=O)oc3ccccc3c2s1)N1CCN(c2ccccc2)CC1`, the activation was inactive: 4.57%. In the case of `COc1ccc2c(c1)c1c(c(=O)n(-c3cccc(C)c3)c(=O)n1Cc1cccc(Cl)c1)n2C`, the activation was inactive: -5.18%. For `Cc1ccc(-c2noc(-c3nnn(-c4cccc(C(F)(F)F)c4)c3N)n2)cc1`, the activation was inactive: 1.87%. `COc1ccc(-c2nn(-c3ccccc3)cc2C2NC(=O)NC(C)=C2C(=O)OC(C)C)cc1OC` (stereo not given) was tested, and the activation was inactive: -19.3%. With `O=S(=O)(c1ccc2nc(N3CCN(c4ccccc4F)CC3)ccc2c1)N1CCCCC1` the activation was inactive: -19.4%. In the case of `CC[C@@H]1Cc2cc(O)ccc2C2=C1c1ccc(O)cc1C[C@H]2CC`, the activation was inactive: -11.7%. `COc1ccc(N2C(=O)CSC23C(=O)N(Cc2cccc(F)c2)c2ccccc23)cc1Cl` (stereo not given) was tested, and the activation was inactive: 11.5%. For `Cc1nc(-n2nc(C)c(CCC(C)C)c2C)sc1C(=O)Nc1ccc(Cl)cc1`, the activation was inactive: 3.81%. `O=C(Cn1ncc2c3ccccc3n(Cc3ccc(F)cc3)c2c1=O)NCc1ccccn1` was tested, and the activation was inactive: -0.389%. `Cc1cc(-c2ccc(C)c(S(=O)(=O)NCC3CCN(Cc4ccccc4F)CC3)c2)on1` was tested, and the activation was inactive: -35.6%. In the case of `O=C(NCc1ccccc1)C(=O)Nc1c2c(nn1-c1ccccc1)CSC2`, the activation was inactive: -20.7%. In the case of `Cc1ccc(C(c2c(O)cc(C)n(Cc3ccco3)c2=O)N2CCC(C)CC2)cc1` (stereo not given), the activation was inactive: -9.43%. For `COc1ccc(OC)c(CNCc2c(C(=O)O)n(Cc3cccc(F)c3)c3cc(OC)ccc23)c1`, the activation was inactive: 4.52%. With `Cc1cc(C)cc(NC(=O)C2CC(=O)N(c3ccccc3)C2)c1` (stereo not given) the activation was active: 118%. With `Cc1ccccc1CCNC(=O)c1ccc2c(c1)nc1n2CCCCC1` the activation was inactive: -4.42%. In the case of `COc1ccc2cc3[n+](cc2c1OC)CCc1cc2c(cc1-3)OCO2`, the activation was inactive: 34.4%. `Cc1cccc(-c2nc(CN3CCCC(C(=O)NCCc4ccc(Cl)cc4)C3)c(C)o2)c1` (stereo not given) was tested, and the activation was inactive: 49.3%. With `Cc1ccc(-c2nc3ccccc3o2)cc1NC(=O)Cc1ccc(Cl)cc1` the activation was inactive: 9.54%. With `O=C(CCn1c(=O)c2sccc2n(Cc2ccc(F)cc2Cl)c1=O)NCc1ccc2c(c1)OCO2` the activation was inactive: -17%. With `O=C(Nc1sc2c(c1C(=O)NCC1CCCO1)CCCC2)c1cc(=O)c2ccccc2o1` (stereo not given) the activation was inactive: -4.16%. With `CCOC(=O)c1cccc(NC(=O)c2cnc3sc(N4CCOCC4)nn3c2=O)c1` the activation was inactive: 12.6%. With `Cc1ccc(-c2cc(C(=O)Oc3ccc(C#N)cc3)no2)cc1C` the activation was inactive: 9.71%. With `COC(=O)c1ccccc1NC(=O)CSc1nc(C)c(Cl)c(C)c1C#N` the activation was inactive: -9.72%. With `Cc1ccc2c(c1)c1c(c(=O)n(Cc3ccccc3)c(=O)n1CC(=O)Nc1ccccc1F)n2C` the activation was inactive: -0.861%. In the case of `CCCCCCCCCCOCC(O)CN` (stereo not given), the activation was inactive: -28.9%. In the case of `COc1ccc(S(=O)(=O)NCc2nc3nc(C)cc(C)n3n2)cc1OC`, the activation was inactive: 0.226%.
